This note sets out measurements from PubChem BioAssay AID743255 (National Center for Advancing Translational Sciences (NCATS), 2014).

Screen size: about 390,000 compounds; about 910 (0.23%) were called active. Inconclusive results (about 5%) are left out. Calls come from the whole dose curve; as a rule, active = well fitted inhibition curve with a large enough effect; inconclusive = small, poorly fitted or top-dose-only effect; inactive = no such curve, though single readings can be large or run the other way. Only a part is listed here, and it is no random draw.
% is set by controls: 0 for no effect and ±100 for the full control effect; potency is the fitted concentration of half-maximal effect.

Sequence of UniProt O94782 (O94782 whole entry, looked up): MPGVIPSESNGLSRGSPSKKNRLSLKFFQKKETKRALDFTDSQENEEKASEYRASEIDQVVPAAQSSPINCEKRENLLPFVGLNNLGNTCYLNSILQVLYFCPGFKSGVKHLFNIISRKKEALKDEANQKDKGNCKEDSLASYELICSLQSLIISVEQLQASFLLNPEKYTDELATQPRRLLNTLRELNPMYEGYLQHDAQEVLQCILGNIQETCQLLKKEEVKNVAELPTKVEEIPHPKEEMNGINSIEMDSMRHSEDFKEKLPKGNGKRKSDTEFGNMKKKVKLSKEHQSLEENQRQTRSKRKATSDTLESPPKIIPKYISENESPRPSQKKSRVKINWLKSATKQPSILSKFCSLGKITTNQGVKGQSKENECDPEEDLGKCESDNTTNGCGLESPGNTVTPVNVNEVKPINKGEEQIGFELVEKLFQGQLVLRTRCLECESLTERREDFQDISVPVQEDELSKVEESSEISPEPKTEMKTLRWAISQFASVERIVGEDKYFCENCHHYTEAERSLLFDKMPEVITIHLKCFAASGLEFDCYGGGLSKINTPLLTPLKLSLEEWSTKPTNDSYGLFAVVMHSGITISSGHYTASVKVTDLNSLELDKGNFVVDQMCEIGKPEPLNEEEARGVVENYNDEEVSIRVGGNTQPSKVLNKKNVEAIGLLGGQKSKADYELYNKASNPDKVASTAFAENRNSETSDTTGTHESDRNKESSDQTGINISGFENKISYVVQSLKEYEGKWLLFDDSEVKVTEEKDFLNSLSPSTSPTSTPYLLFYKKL

The assay has as its target Ubiquitin carboxyl-terminal hydrolase 1 (Homo sapiens) (UniProt O94782). The experiment in a line: Inhibitors of USP1/UAF1: Primary Screen. Note: nearly all actives have a fitted effect of over 60% in size. Particulars: recombinant USP1/UAF1, Ub-Rhodamine cleavage fluorescence; activity change, negative = inhibition: at 57.1 µM (top of the series). In short, it runs like this:
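High-throughput fluorogenic screen: 1nM USP1/UAF1 complex, Ub-Rho substrate 150nM final, 50mM HEPES pH 7.8 with 0.5mM EDTA, 0.1 mg/ml BSA, 1mM TCEP and 0.01% Tween-20.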
Take `COc1ccc(C(CNC(=O)c2oc3cc(C)c(C)cc3c2C)N2CCCCC2)cc1` (configuration not stated): the “activity change, negative = inhibition” value is inactive: -14%.

For `O=C1OC[C@H]2CCCN2C(=O)[C@@H](CC(=O)N(CCO)Cc2ccccc2)C/C=C\CC[C@@H]1Cc1ccc(F)cc1`, the “activity change, negative = inhibition” value was inactive: -31.2%.

Take `O=C(CCCN1C(=O)/C(=C\c2cccs2)SC1=S)Nc1cc([N+](=O)[O-])ccc1O`: the “activity change, negative = inhibition” value was inactive: -0.805%.

Consider `COCCn1c2nc(=O)n(-c3ccccc3)c(=O)c-2nc2ccccc21`, for which the Potency was active: 28.2 µM.

Take `CC(=Nc1ccc(C)cc1C)c1sc2ccccc2c1O`: the Potency was active: 35.5 µM.

`CC[C@@H]1C/C=C\Cc2ccccc2[C@H](C(=O)C[C@@H](O)CC(C)=O)OC1=O`: the “activity change, negative = inhibition” value was inactive: -2.74%.

With `CCC(=O)N1CCc2cc(S(=O)(=O)NC(Cc3ccccc3)C(=O)O)ccc21` (configuration not stated), the “activity change, negative = inhibition” value was inactive: -7.43%.

As for `CCN1C(=O)[C@@H]2[C@@H](c3ccc(-c4ccc(F)cc4)c(OC)c3)N3CCCC[C@@]3(C(=O)OC)[C@@H]2C1=O`, the “activity change, negative = inhibition” value was inactive: -29.1%.

Regarding `Cc1ccc(CS(=O)(=O)c2ncc(Cl)c(C(=O)Nc3nnc(C(C)C)s3)n2)cc1`, the “activity change, negative = inhibition” value is inactive: -20%.

For the compound `C[C@@H]1CN([C@H](C)CO)C(=O)CCCn2nncc2CO[C@H]1CN(C)C(=O)CCC(F)(F)F`, the “activity change, negative = inhibition” value was inactive: -25.5%.

In the case of `COc1ccc(NC(=O)c2ccc3c(SCC(=O)O)c4c(nc3c2)CCCC4)c(OC)c1`, the “activity change, negative = inhibition” value is inactive: -21.5%.

On to `CCOC(=O)[C@@H]1[C@H]2COc3ccc(Br)cc3[C@@H]2N2C(=O)N(c3ccc(Br)cc3)C(=O)[C@@]12C`, for which the “activity change, negative = inhibition” value is inactive: -27.1%.

Turning to `COCCNC(=O)c1ccc2c(c1)N(Cc1cc(C)ccc1C)C(=O)c1ccccc1S2(=O)=O`, the “activity change, negative = inhibition” value was inactive: 34.5%.

Take `Cc1cccc(-c2nnn3c2nc(NCCc2ccc(S(N)(=O)=O)cc2)c2ccccc23)c1`: the “activity change, negative = inhibition” value was inactive: -3.23%.

As to `OCC[C@H]1C[C@@H](O)[C@H](O)[C@]2(CCCc3ccccc3O2)O1`, the “activity change, negative = inhibition” value was inactive: -22.8%.

As for `Cc1ccc(-c2cc(C(=O)NCc3cnn(C)c3)c3cc(Br)ccc3n2)cc1`, the “activity change, negative = inhibition” value is inactive: -26.3%.

In the case of `CC(C)C(NS(=O)(=O)c1ccccc1)C(=O)OCc1cc([N+](=O)[O-])cc2c1OCOC2` (configuration not stated), the “activity change, negative = inhibition” value is inactive: -19.8%.

As to `CCOC(=O)/C(C#N)=C/c1c(OCC)n(CC)c2ccccc12`, the “activity change, negative = inhibition” value was inactive: -23.8%.

On to `C=CCC[C@@H](Cc1ccc(F)cc1)C(=O)OC[C@H](Cc1c[nH]c2ccccc12)NC(=O)[C@H](CC=C)CC(=O)N(CCO)Cc1ccccc1`, for which the “activity change, negative = inhibition” value is inactive: -9.64%.

As for `CCCCCCN1C=CC(=C/C=C(\C#N)C(=O)OCC)C=C1`, the “activity change, negative = inhibition” value was inactive: 68.5%.

With `C=CC[C@@H](CC(=O)N[C@@H](CO)Cc1ccccc1)C(=O)N[C@@H](COC(=O)[C@@H](CC=C)CC(=O)OC(C)(C)C)Cc1c[nH]c2ccccc12`, the “activity change, negative = inhibition” value was inactive: -26.2%.

For the compound `COc1cccc(S(=O)(=O)N(C)C[C@H]2OCc3cnnn3CCCC(=O)N([C@H](C)CO)C[C@@H]2C)c1`, the “activity change, negative = inhibition” value was inactive: -15.2%.

In the case of `Cc1ccc(C)c(OCCn2cc(/C=C(/C#N)C(=O)NCC3CCCO3)c3ccccc32)c1` (configuration not stated), the “activity change, negative = inhibition” value was inactive: -16.9%.

As to `N#C/C(=C\c1ccc(-c2ccc(F)cc2F)o1)c1nc2ccccc2[nH]1`, the “activity change, negative = inhibition” value was inactive: 331%.

In the case of `C[C@H]1CN([C@@H](C)CO)C(=O)c2cc(Br)cnc2O[C@@H]1CN(C)C(=O)Nc1ccc(C(F)(F)F)cc1`, the “activity change, negative = inhibition” value is inactive: -12.8%.

Regarding `CC[C@H](C)Cc1cn([C@@H](CCCN=C(N)N)C(=O)NCCCCCCCCCCC(=O)N2CCNCC2)nn1`, the “activity change, negative = inhibition” value is inactive: 21.8%.

As to `O=c1cc(-c2ccccc2)nc2cc(-c3ccc(F)cc3)[nH]n12`, the “activity change, negative = inhibition” value was inactive: -7.17%.

As to `O=C1C=C(Nc2cccnc2)c2ccccc2C1=O`, the Potency is active: 14.1 µM.

Consider `Cc1ccc(N=Cc2cc(Cc3ccccc3Cl)cc([N+](=O)[O-])c2O)c(O)c1`, for which the Potency was active: 17.8 µM.

In the case of `COC(=O)c1ccc(NC(=O)Cn2nc(C(=O)Nc3ccc(C)cc3)ccc2=O)cc1`, the “activity change, negative = inhibition” value was inactive: -20.6%.

For `CC(C)(C)c1ccc(C2NC(=O)c3n[nH]c(-c4cccs4)c32)cc1` (configuration not stated), the “activity change, negative = inhibition” value was inactive: 31.8%.

As for `O=C1c2cccc3c(O)ccc(c23)C(=O)N1Cc1ccccc1`, the Potency was active: 6.31 µM.

Turning to `C[C@@H]1CN([C@@H](C)CO)S(=O)(=O)c2ccc(Br)cc2O[C@@H]1CN(C)C(=O)c1ccccn1`, the “activity change, negative = inhibition” value was inactive: -18.3%.

Take `N#C/C(=C(/O)COC(=O)Cc1c[nH]c2ccccc12)c1nc2ccccc2[nH]1`: the “activity change, negative = inhibition” value was inactive: -7.62%.

As for `O=C1C=C(Nc2ccccc2)c2ccccc2C1=O`, the Potency is active: 12.6 µM.

Consider `C=CC[C@H](CC(=O)NCCO)C(=O)N[C@H](C)COC(=O)[C@@H](CC=C)Cc1ccc(F)cc1`, for which the “activity change, negative = inhibition” value was inactive: -31.8%.

`CC(=O)OCCn1c2nc(=O)[nH]c(=O)c-2nc2cc(C)c(C)cc21`: the Potency is active: 28.2 µM.

Take `CCCCCC(=O)N1C[C@@H](O)[C@H](n2cc(-c3ccc(F)cc3)nn2)C[C@@H]1c1ccc(OC)cc1`: the “activity change, negative = inhibition” value was inactive: -13.1%.

For the compound `CCOc1ccc(Cn2c3ccc(OC)cc3c3nc4ccccc4nc32)cc1OC`, the “activity change, negative = inhibition” value was inactive: 35.7%.

`C=CC[C@@H](CC(=O)N[C@@H](CO)Cc1ccccc1)C(=O)N[C@H](COC(=O)[C@H](CC=C)CC(=O)OC(C)(C)C)Cc1c[nH]c2ccccc12`: the “activity change, negative = inhibition” value was inactive: -24.5%.

Consider `C=CCC[C@@H](Cc1ccc(F)cc1)C(=O)OC[C@H]1CCCN1C(=O)[C@@H](CC=C)CC(=O)N[C@H](CO)Cc1ccccc1`, for which the “activity change, negative = inhibition” value is inactive: -18%.

As to `C[C@]12C(=O)N(c3ccc(Br)cc3)C(=O)N1[C@H]1c3ccccc3OC[C@@H]1[C@H]2c1ccccc1`, the “activity change, negative = inhibition” value was inactive: -19.8%.

Regarding `CCOC(=O)c1c(NC(=O)c2ccc(S(=O)(=O)N(C)C3CCCCC3)cc2)sc2c1CCN(C(C)C)C2`, the “activity change, negative = inhibition” value was inactive: 68.2%.

Take `COc1cc(/C=C2/SC(=S)N(CC(=O)Nc3cccnc3)C2=O)cc(OC)c1OC`: the “activity change, negative = inhibition” value is inactive: -23.3%.

For `COc1cc(N(C(C)=O)c2ccc(O)c(C(=O)O)c2)c2ncccc2c1`, the Potency is active: 31.6 µM.

Regarding `COc1ccc(NC(=O)c2sc3nc(-c4ccc(OC)cc4)cc(C(F)(F)F)c3c2N)cc1`, the “activity change, negative = inhibition” value was inactive: -14.6%.

With `Cc1c(C)n(C)c2ccc(C(=O)NCCCN3CCCCC3C)cc12` (configuration not stated), the “activity change, negative = inhibition” value was inactive: -4.9%.

Take `CC(C)(C)OC(=O)C[C@@H]1C/C=C\C[C@@H](CC(=O)N[C@H](CO)Cc2ccccc2)C(=O)NC[C@H](c2ccccc2)OC1=O`: the “activity change, negative = inhibition” value is inactive: -22.2%.

For `CC(=O)C[C@H](O)CC(=O)[C@H]1OC(=O)CCCCCCc2ccccc21`, the “activity change, negative = inhibition” value was inactive: -17.9%.

For `C[C@@H]1CN([C@@H](C)CO)C(=O)CCCn2nncc2CO[C@H]1CN(C)C(=O)CCC(F)(F)F`, the “activity change, negative = inhibition” value is inactive: -17.6%.

For `O=C(NC1(O)C(=O)c2ccccc2C1=O)c1ccc(C(F)(F)F)cc1`, the Potency is active: 15.8 µM.

As for `COC(C[C@@H]1O[C@@H]1C(=O)[C@H](C)OCc1ccccc1)OC`, the “activity change, negative = inhibition” value was inactive: -24.4%.
